± gives the standard deviation of the averaged measurements. Restriction of a single-cycle SIVsab GFP reporter by TRIM5α v1-loop variants in CRFK cells. Human variants: read share among cells still uninfected after two challenges over input, higher = gained restriction. Rhesus variants: share among infected cells over input, higher = lost restriction. Reporter dose not given per row. No active / inactive call per row; the paper calls a change when both replicates lie above its controls (mean + 2 SD of stop or wild-type variants, or the top frameshift score). Residues outside the varied loop are taken from Swiss-Prot. The paper reads the human single-substitution scores as noise; they and the rhesus combinations repeat poorly (rank correlation 0.3 to 0.4), indel scores repeat only for the top variants, rhesus substitutions well (0.9).
system: SIVsab (simian immunodeficiency virus of sabaeus monkeys), single-cycle GFP reporter, in CRFK cells; assay: enrichment among uninfected cells over input (fold); higher = stronger restriction; settings: library: human / rhesus combinations
Procedure: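 Pools of CRFK cells expressing variants of the TRIM5α v1 loop were challenged with the single-cycle reporter, sorted by GFP and sequenced; mean of two replicates.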

Sequence	enrichment
MASGILVNVKEEVTCPICLELLTQPLSLDCGHSFCQACLTANHKKSMLDKGESSCPVCRISYQPENIRPNRHVANIVEKLREVKLSPEGQKVDHCARHGEKLLLFCQEDGKVICWLCERSQEHRGHHTFLTEEVAREYQVKLQAALEMLRQKQQEAEELEADIREEKASWKTQIQYDKTNVLADFEQLRDILDWEESNELQNLEKEEEDILKSLTNSETEMVQQTQSLRELISDLEHRLQGSVMELLQGVDGVIKRTENVTLKKPETFPKNQRRVFRAPDLKGMLEVFRELTDVRRYWVDVTVAPNNISCAVISEDKRQVSSPKPQIIYQARGTRYTFPTFTNFNYCTGILGSQSITSGKHYWEVDVSKKTAWILGVCAGFQPDAMCNIEKNENYQPKYGYWVIGLEEGVKCSAFQDSSFHTPSVPFIVPLSVIICPDRVGVFLDYEACTVSFFNITNHGFLIYKFSHCSFSQPVFPYLNPRKCGVPMTLCSPSS [human TRIM5α, 330-340 = QARGTRYTFPTFT]	0.0468 ± 0.065
MASGILVNVKEEVTCPICLELLTQPLSLDCGHSFCQACLTANHKKSMLDKGESSCPVCRISYQPENIRPNRHVANIVEKLREVKLSPEGQKVDHCARHGEKLLLFCQEDGKVICWLCERSQEHRGHHTFLTEEVAREYQVKLQAALEMLRQKQQEAEELEADIREEKASWKTQIQYDKTNVLADFEQLRDILDWEESNELQNLEKEEEDILKSLTNSETEMVQQTQSLRELISDLEHRLQGSVMELLQGVDGVIKRTENVTLKKPETFPKNQRRVFRAPDLKGMLEVFRELTDVRRYWVDVTVAPNNISCAVISEDKRQVSSPKPQIIYQARGTLFPTLVNFNYCTGILGSQSITSGKHYWEVDVSKKTAWILGVCAGFQPDAMCNIEKNENYQPKYGYWVIGLEEGVKCSAFQDSSFHTPSVPFIVPLSVIICPDRVGVFLDYEACTVSFFNITNHGFLIYKFSHCSFSQPVFPYLNPRKCGVPMTLCSPSS [human TRIM5α, 330-340 = QARGTLFPTLV]	0.00124 ± 0.00071
MASGILVNVKEEVTCPICLELLTQPLSLDCGHSFCQACLTANHKKSMLDKGESSCPVCRISYQPENIRPNRHVANIVEKLREVKLSPEGQKVDHCARHGEKLLLFCQEDGKVICWLCERSQEHRGHHTFLTEEVAREYQVKLQAALEMLRQKQQEAEELEADIREEKASWKTQIQYDKTNVLADFEQLRDILDWEESNELQNLEKEEEDILKSLTNSETEMVQQTQSLRELISDLEHRLQGSVMELLQGVDGVIKRTENVTLKKPETFPKNQRRVFRAPDLKGMLEVFRELTDVRRYWVDVTVAPNNISCAVISEDKRQVSSPKPQIIYQARGTRYTFPTLVNFNYCTGILGSQSITSGKHYWEVDVSKKTAWILGVCAGFQPDAMCNIEKNENYQPKYGYWVIGLEEGVKCSAFQDSSFHTPSVPFIVPLSVIICPDRVGVFLDYEACTVSFFNITNHGFLIYKFSHCSFSQPVFPYLNPRKCGVPMTLCSPSS [human TRIM5α, 330-340 = QARGTRYTFPTLV]	0.143 ± 0.2
MASGILVNVKEEVTCPICLELLTQPLSLDCGHSFCQACLTANHKKSMLDKGESSCPVCRISYQPENIRPNRHVANIVEKLREVKLSPEGQKVDHCARHGEKLLLFCQEDGKVICWLCERSQEHRGHHTFLTEEVAREYQVKLQAALEMLRQKQQEAEELEADIREEKASWKTQIQYDKTNVLADFEQLRDILDWEESNELQNLEKEEEDILKSLTNSETEMVQQTQSLRELISDLEHRLQGSVMELLQGVDGVIKRTENVTLKKPETFPKNQRRVFRAPDLKGMLEVFRELTDVRRYWVDVTVAPNNISCAVISEDKRQVSSPKPQIIYGAPGTLYTFQTLVNFNYCTGILGSQSITSGKHYWEVDVSKKTAWILGVCAGFQPDAMCNIEKNENYQPKYGYWVIGLEEGVKCSAFQDSSFHTPSVPFIVPLSVIICPDRVGVFLDYEACTVSFFNITNHGFLIYKFSHCSFSQPVFPYLNPRKCGVPMTLCSPSS [human TRIM5α, 330-340 = GAPGTLYTFQTLV]	0.0562 ± 0.032
MASGILVNVKEEVTCPICLELLTQPLSLDCGHSFCQACLTANHKKSMLDKGESSCPVCRISYQPENIRPNRHVANIVEKLREVKLSPEGQKVDHCARHGEKLLLFCQEDGKVICWLCERSQEHRGHHTFLTEEVAREYQVKLQAALEMLRQKQQEAEELEADIREEKASWKTQIQYDKTNVLADFEQLRDILDWEESNELQNLEKEEEDILKSLTNSETEMVQQTQSLRELISDLEHRLQGSVMELLQGVDGVIKRTENVTLKKPETFPKNQRRVFRAPDLKGMLEVFRELTDVRRYWVDVTVAPNNISCAVISEDKRQVSSPKPQIIYGAPGTRYTFPTFTNFNYCTGILGSQSITSGKHYWEVDVSKKTAWILGVCAGFQPDAMCNIEKNENYQPKYGYWVIGLEEGVKCSAFQDSSFHTPSVPFIVPLSVIICPDRVGVFLDYEACTVSFFNITNHGFLIYKFSHCSFSQPVFPYLNPRKCGVPMTLCSPSS [human TRIM5α, 330-340 = GAPGTRYTFPTFT]	0.0845 ± 0.12
MASGILVNVKEEVTCPICLELLTQPLSLDCGHSFCQACLTANHKKSMLDKGESSCPVCRISYQPENIRPNRHVANIVEKLREVKLSPEGQKVDHCARHGEKLLLFCQEDGKVICWLCERSQEHRGHHTFLTEEVAREYQVKLQAALEMLRQKQQEAEELEADIREEKASWKTQIQYDKTNVLADFEQLRDILDWEESNELQNLEKEEEDILKSLTNSETEMVQQTQSLRELISDLEHRLQGSVMELLQGVDGVIKRTENVTLKKPETFPKNQRRVFRAPDLKGMLEVFRELTDVRRYWVDVTVAPNNISCAVISEDKRQVSSPKPQIIYGAPGTRYTFPSLTNFNYCTGILGSQSITSGKHYWEVDVSKKTAWILGVCAGFQPDAMCNIEKNENYQPKYGYWVIGLEEGVKCSAFQDSSFHTPSVPFIVPLSVIICPDRVGVFLDYEACTVSFFNITNHGFLIYKFSHCSFSQPVFPYLNPRKCGVPMTLCSPSS [human TRIM5α, 330-340 = GAPGTRYTFPSLT]	0.0907 ± 0.055

same assay, conditions: library: insertions and deletions

Sequence	enrichment
MASGILVNVKEEVTCPICLELLTQPLSLDCGHSFCQACLTANHKKSMLDKGESSCPVCRISYQPENIRPNRHVANIVEKLREVKLSPEGQKVDHCARHGEKLLLFCQEDGKVICWLCERSQEHRGHHTFLTEEVAREYQVKLQAALEMLRQKQQEAEELEADIREEKASWKTQIQYDKTNVLADFEQLRDILDWEESNELQNLEKEEEDILKSLTNSETEMVQQTQSLRELISDLEHRLQGSVMELLQGVDGVIKRTENVTLKKPETFPKNQRRVFRAPDLKGMLEVFRELTDVRRYWVDVTVAPNNISCAVISEDKRQVSSPKPQIIYGARGYQTFVNFNYCTGILGSQSITSGKHYWEVDVSKKTAWILGVCAGFQPDAMCNIEKNENYQPKYGYWVIGLEEGVKCSAFQDSSFHTPSVPFIVPLSVIICPDRVGVFLDYEACTVSFFNITNHGFLIYKFSHCSFSQPVFPYLNPRKCGVPMTLCSPSS [human TRIM5α, 2-codon deletion at 334]	0.765 ± 0.55
MASGILVNVKEEVTCPICLELLTQPLSLDCGHSFCQACLTANHKKSMLDKGESSCPVCRISYQPENIRPNRHVANIVEKLREVKLSPEGQKVDHCARHGEKLLLFCQEDGKVICWLCERSQEHRGHHTFLTEEVAREYQVKLQAALEMLRQKQQEAEELEADIREEKASWKTQIQYDKTNVLADFEQLRDILDWEESNELQNLEKEEEDILKSLTNSETEMVQQTQSLRELISDLEHRLQGSVMELLQGVDGVIKRTENVTLKKPETFPKNQRRVFRAPDLKGMLEVFRELTDVRRYWVDVTVAPNNISCAVISEDKRQVSSPKPQIIYGIYGARGTRYQTFVNFNYCTGILGSQSITSGKHYWEVDVSKKTAWILGVCAGFQPDAMCNIEKNENYQPKYGYWVIGLEEGVKCSAFQDSSFHTPSVPFIVPLSVIICPDRVGVFLDYEACTVSFFNITNHGFLIYKFSHCSFSQPVFPYLNPRKCGVPMTLCSPSS [human TRIM5α, 3-codon duplication at 328]	0.914 ± 0.87
MASGILVNVKEEVTCPICLELLTQPLSLDCGHSFCQACLTANHKKSMLDKGESSCPVCRISYQPENIRPNRHVANIVEKLREVKLSPEGQKVDHCARHGEKLLLFCQEDGKVICWLCERSQEHRGHHTFLTEEVAREYQVKLQAALEMLRQKQQEAEELEADIREEKASWKTQIQYDKTNVLADFEQLRDILDWEESNELQNLEKEEEDILKSLTNSETEMVQQTQSLRELISDLEHRLQGSVMELLQGVDGVIKRTENVTLKKPETFPKNQRRVFRAPDLKGMLEVFRELTDVRRYWVDVTVAPNNISCAVISEDKRQVSSPKPQIYGARGTRYQTFVNFNYCTGILGSQSITSGKHYWEVDVSKKTAWILGVCAGFQPDAMCNIEKNENYQPKYGYWVIGLEEGVKCSAFQDSSFHTPSVPFIVPLSVIICPDRVGVFLDYEACTVSFFNITNHGFLIYKFSHCSFSQPVFPYLNPRKCGVPMTLCSPSS [human TRIM5α, 1-codon deletion at 327]	0.7 ± 0.09
MASGILVNVKEEVTCPICLELLTQPLSLDCGHSFCQACLTANHKKSMLDKGESSCPVCRISYQPENIRPNRHVANIVEKLREVKLSPEGQKVDHCARHGEKLLLFCQEDGKVICWLCERSQEHRGHHTFLTEEVAREYQVKLQAALEMLRQKQQEAEELEADIREEKASWKTQIQYDKTNVLADFEQLRDILDWEESNELQNLEKEEEDILKSLTNSETEMVQQTQSLRELISDLEHRLQGSVMELLQGVDGVIKRTENVTLKKPETFPKNQRRVFRAPDLKGMLEVFRELTDVRRYWVDVTVAPNNISCAVISEDKRQVSSPKPQIIYGARGTRYQTFVNCTGILGSQSITSGKHYWEVDVSKKTAWILGVCAGFQPDAMCNIEKNENYQPKYGYWVIGLEEGVKCSAFQDSSFHTPSVPFIVPLSVIICPDRVGVFLDYEACTVSFFNITNHGFLIYKFSHCSFSQPVFPYLNPRKCGVPMTLCSPSS [human TRIM5α, 3-codon deletion at 342]	1.27 ± 0.98
MASGILVNVKEEVTCPICLELLTQPLSLDCGHSFCQACLTANHKKSMLDKGESSCPVCRISYQPENIRPNRHVANIVEKLREVKLSPEGQKVDHCARHGEKLLLFCQEDGKVICWLCERSQEHRGHHTFLTEEVAREYQVKLQAALEMLRQKQQEAEELEADIREEKASWKTQIQYDKTNVLADFEQLRDILDWEESNELQNLEKEEEDILKSLTNSETEMVQQTQSLRELISDLEHRLQGSVMELLQGVDGVIKRTENVTLKKPETFPKNQRRVFRAPDLKGMLEVFRELTDVRRYWVDVTVAPNNISCAVISEDKRQVSSPKPQIIYGARGTRNYCTGILGSQSITSGKHYWEVDVSKKTAWILGVCAGFQPDAMCNIEKNENYQPKYGYWVIGLEEGVKCSAFQDSSFHTPSVPFIVPLSVIICPDRVGVFLDYEACTVSFFNITNHGFLIYKFSHCSFSQPVFPYLNPRKCGVPMTLCSPSS [human TRIM5α, 7-codon deletion at 336]	1.41 ± 0.99
MASGILVNVKEEVTCPICLELLTQPLSLDCGHSFCQACLTANHKKSMLDKGESSCPVCRISYQPENIRPNRHVANIVEKLREVKLSPEGQKVDHCARHGEKLLLFCQEDGKVICWLCERSQEHRGHHTFLTEEVAREYQVKLQAALEMLRQKQQEAEELEADIREEKASWKTQIQYDKTNVLADFEQLRDILDWEESNELQNLEKEEEDILKSLTNSETEMVQQTQSLRELISDLEHRLQGSVMELLQGVDGVIKRTENVTLKKPETFPKNQRRVFRAPDLKGMLEVFRELTDVRRYWVDVTVAPNNISCAVISEDKRQVSSPKPQIIYGARGTRYQTFILGSQSITSGKHYWEVDVSKKTAWILGVCAGFQPDAMCNIEKNENYQPKYGYWVIGLEEGVKCSAFQDSSFHTPSVPFIVPLSVIICPDRVGVFLDYEACTVSFFNITNHGFLIYKFSHCSFSQPVFPYLNPRKCGVPMTLCSPSS [human TRIM5α, 8-codon deletion at 340]	1.15 ± 0.26

Source: the supplement of paper PMC12230231
